In PubChem BioAssay AID489012 (National Center for Advancing Translational Sciences (NCATS), 2010):
Inconclusive means that the source gave no clear call. Such entries were picked first, then a sample of the others. A potency beside an inconclusive call is a rough fit, not a confirmed value. The source made the active and inactive calls. The call rests on the fitted dose curve; in most records, active means well fitted activation curve with a large enough effect; inconclusive means small, poorly fitted or top-dose-only effect; inactive means no such curve, though single readings can be large or run the other way.
Further: nearly all actives have a fitted effect of over 65% in size.
Potency means the concentration at half of the fitted maximal effect; tags describe the fitted curve by direction and shape.

These compounds were tested against Relaxin receptor 1 (Homo sapiens) (UniProt Q9HBX9) (assay: qHTS Assay for Agonists of the Relaxin Receptor RXFP1: RXFP1 Hit Validation). Details: HEK293T-RXFP1 cAMP TR-FRET, 30 min; series mostly up to 115 µM.
Sequence of UniProt Q9HBX9 (Q9HBX9 whole entry, looked up): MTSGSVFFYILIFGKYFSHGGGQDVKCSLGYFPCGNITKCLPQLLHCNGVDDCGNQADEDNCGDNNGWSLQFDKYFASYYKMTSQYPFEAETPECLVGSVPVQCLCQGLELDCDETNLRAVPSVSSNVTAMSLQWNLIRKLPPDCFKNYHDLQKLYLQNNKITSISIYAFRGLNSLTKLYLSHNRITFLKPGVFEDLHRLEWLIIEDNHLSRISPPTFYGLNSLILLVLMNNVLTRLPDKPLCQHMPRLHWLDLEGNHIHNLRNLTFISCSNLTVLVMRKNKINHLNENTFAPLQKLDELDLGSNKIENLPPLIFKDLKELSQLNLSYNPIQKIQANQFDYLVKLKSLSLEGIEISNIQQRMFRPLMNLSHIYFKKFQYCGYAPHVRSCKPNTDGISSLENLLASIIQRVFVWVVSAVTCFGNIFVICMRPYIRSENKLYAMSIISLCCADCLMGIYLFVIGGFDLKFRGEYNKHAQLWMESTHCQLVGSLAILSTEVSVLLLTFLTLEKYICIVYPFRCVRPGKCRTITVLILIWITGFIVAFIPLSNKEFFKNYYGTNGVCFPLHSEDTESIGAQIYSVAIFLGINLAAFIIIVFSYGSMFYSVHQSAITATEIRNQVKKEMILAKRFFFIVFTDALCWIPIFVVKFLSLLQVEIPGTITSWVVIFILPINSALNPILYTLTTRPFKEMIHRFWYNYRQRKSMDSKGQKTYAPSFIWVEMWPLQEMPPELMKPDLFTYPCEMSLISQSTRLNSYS
With `CC1(C(=O)Nc2nc3ccccc3s2)CC1(Br)Br` (stereo unspecified) the Potency was inconclusive: 21.9 µM [activator, partial curve].
In the case of `CCCN(CCC)S(=O)(=O)c1cc(CN2C(=O)c3cccnc3C2=O)ccc1OC`, the Potency was inconclusive: 24.5 µM [activator, partial curve].
For `COc1ccc(S(=O)(=O)N2CCOCC2)cc1NC(=O)CSc1nnc2ccccn12`, the Potency was inconclusive: 12.3 µM [activator, partial curve].
For `CCN(CC)S(=O)(=O)c1cccc(C(=O)NCCCn2ccnc2)c1`, the Potency was inconclusive: 34.6 µM [activator, partial curve].
In the case of `O=C(O)CSc1ccnc2cc(Cl)ccc12`, the Potency was inconclusive: 21.8 µM [activator, partial curve].
For `CCC(=O)Nc1cccc(NC(=O)CSc2nc3c(c(=O)n(C)c(=O)n3C)n2C)c1`, the Potency was inconclusive: 38.9 µM [activator, partial curve].
`COC(=O)C(C)Sc1ccc2nnc(-c3ccccc3)n2n1` (stereo unspecified) was tested, and the Potency was inconclusive: 24.5 µM [activator, partial curve].
For `COc1ccc(S(=O)(=O)N2CCOCC2)cc1NC(=O)CSc1cccc[n+]1[O-]`, the Potency was inconclusive: 48.9 µM [activator, partial curve].
For `Cn1c(N)c(C(=O)CSc2nn(-c3ccc(F)cc3)c(=S)s2)c(=O)n(C)c1=O`, the Potency was active: 21.8 µM.
For `Nc1ncnc2c1ncn2[C@@H]1O[C@H](COS(=O)(=O)O)[C@@H](O)[C@H]1O`, the Potency was active: 6.9 µM.
`CC(C)n1c(SCC(=O)N2CCN(C(=O)c3ccco3)CC2)nc2c1c(=O)n(C)c(=O)n2C` was tested, and the Potency was inconclusive: 8.68 µM [activator, partial curve].
